Measured values reported in PMC4336329 (PLoS ONE, 2015).
Hit rate of the full screen: of about 310,000 compounds, about 14,000 (4.5%) showed an effect of 50% or more. Effects have a minus sign here. The list shows a part of the results. Where a SMILES comes first, the peptide text is derived from it. [ ]: non-standard residue; d: D form. The star is where a group is joined. ξ: configuration not given here. ξF = NC(Cc1ccccc1)C(=O)O; Cbz = O=C(OCc1ccccc1)*

biological target: human ether-à-go-go-related gene (hERG) potassium channel (human, UniProt Q12809); assay: primary screen, population patch clamp on CHO cells stably expressing hERG
Sequence (Q12809 whole entry, looked up): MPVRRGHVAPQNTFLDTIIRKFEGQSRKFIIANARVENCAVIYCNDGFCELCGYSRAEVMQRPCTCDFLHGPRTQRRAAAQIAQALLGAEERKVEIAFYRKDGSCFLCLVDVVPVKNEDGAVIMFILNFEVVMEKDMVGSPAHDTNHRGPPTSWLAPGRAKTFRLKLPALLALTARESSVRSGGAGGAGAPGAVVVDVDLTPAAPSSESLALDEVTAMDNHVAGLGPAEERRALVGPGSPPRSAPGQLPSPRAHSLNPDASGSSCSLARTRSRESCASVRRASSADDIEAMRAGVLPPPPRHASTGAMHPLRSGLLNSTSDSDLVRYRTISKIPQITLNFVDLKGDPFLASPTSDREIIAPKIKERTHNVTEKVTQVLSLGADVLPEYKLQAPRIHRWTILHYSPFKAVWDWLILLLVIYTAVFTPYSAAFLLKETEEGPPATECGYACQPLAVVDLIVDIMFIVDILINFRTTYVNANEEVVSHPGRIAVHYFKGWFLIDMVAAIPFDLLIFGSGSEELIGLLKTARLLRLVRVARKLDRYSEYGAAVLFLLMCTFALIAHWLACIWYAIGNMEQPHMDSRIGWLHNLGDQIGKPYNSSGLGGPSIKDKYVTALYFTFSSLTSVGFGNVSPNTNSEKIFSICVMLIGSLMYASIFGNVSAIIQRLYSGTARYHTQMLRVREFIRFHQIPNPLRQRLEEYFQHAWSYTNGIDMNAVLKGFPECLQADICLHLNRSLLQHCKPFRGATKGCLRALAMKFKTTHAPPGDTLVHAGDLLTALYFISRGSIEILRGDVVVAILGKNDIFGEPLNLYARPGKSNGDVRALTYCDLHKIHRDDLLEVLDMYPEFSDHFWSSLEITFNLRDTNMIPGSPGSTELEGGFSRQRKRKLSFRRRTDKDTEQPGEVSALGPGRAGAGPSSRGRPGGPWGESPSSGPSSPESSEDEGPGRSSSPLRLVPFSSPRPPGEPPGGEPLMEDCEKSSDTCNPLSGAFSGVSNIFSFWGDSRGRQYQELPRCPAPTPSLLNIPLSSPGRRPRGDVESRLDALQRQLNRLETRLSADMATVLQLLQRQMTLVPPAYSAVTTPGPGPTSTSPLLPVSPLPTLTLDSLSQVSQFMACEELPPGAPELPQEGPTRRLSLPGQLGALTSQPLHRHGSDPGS
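Further: peak tail current of the secondary pulse compared with the same well before compound.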

SMILES | hERG current change (%, negative = inhibition) at 10uM
COc1cc(C(=O)NCc2ccc(-c3nc4ccccc4o3)cc2)cc(OC)c1OC | 16.8%
O=C(CSCc1c(F)cccc1Cl)NNC(=S)NC1CCCCC1 | 9.8%
Cc1ccc(C(=O)C(C)OC(=O)CCN2C(=O)C3C4C=CC(C5CC45)C3C2=O)cc1 (stereo not shown) | -30.6%
O=C(Nc1nnc(S(=O)(=O)N2CCCCCC2)s1)c1ccc(Cl)cc1 | 26.3%
Nc1ccccc1NC1=CC(=O)CC(c2ccco2)C1 (stereo not shown) | 10.4%
CCOc1cccc2cc(C(=O)N3CCc4ccccc4C3)c(=O)oc12 | -29.7%
COCCN(C(=O)COC(=O)CCc1ccccc1OC)c1c(N)n(Cc2ccccc2)c(=O)[nH]c1=O | 4.27%
CCCc1cc(=O)oc2cc(C)cc(OCC(=O)NCc3cccnc3)c12 | -44.4%
CC(C)=CCN1CCN(Cc2nc(-c3ccccc3)cs2)CC1CCO (stereo not shown) | -60.4%
CCOc1ccc(NC(=O)CN2CCN(C(=O)C3CCCO3)CC2)cc1 (stereo not shown) | -32.6%
CCN(CC)c1cc(C)c2cc(NC(=O)c3ccc(Br)o3)ccc2n1 | -76.1%
N#Cc1c2c(c(NCCN3CCOCC3)n3c1nc1ccccc13)CCCC2 | -38.8%
CC(=O)c1ccc(NC(=O)CSc2ccc(-c3sc(C)nc3C)nn2)cc1 | 10.8%
COc1cc(OC)c(C2=NOC(C(=O)N3CCCc4ccccc43)C2)cc1Cl (stereo not shown) | -0.528%
COc1nccnc1NS(=O)(=O)c1ccc(N=Cc2c(C)[nH]n(-c3ccc(Cl)cc3)c2=O)cc1 | 29.7%
O=C(NCc1ccco1)C1CCN(S(=O)(=O)c2cccc3cccnc23)CC1 | -5.85%
COCCN(C(=O)CC1OC(=O)c2ccccc21)c1c(N)n(Cc2ccccc2)c(=O)[nH]c1=O (stereo not shown) | 5.4%
CCOC(=O)C1CCN(C(=O)c2cc(COc3ccc(F)cc3F)on2)CC1 | -26.3%
Cc1cc(-c2ccccc2)nnc1NCCN1CCOCC1.Cl | -22.5%
O=C(Cc1ccccc1)Nc1ccc(N2CCCCC2)cc1 | -6.93%
Cc1cc(=O)[nH]c(SCC(=O)Nc2ccc3c(c2)OCCO3)n1 | 8.83%
CCc1ccccc1NC(=O)C1CCCN(c2nccc(C)n2)C1 (stereo not shown) | 7.86%

SMILES | hERG current change (%, negative = inhibition) at 10uM
O=C(O)c1ccc(NC2=C(N3CCOCC3)C(=O)c3ccccc3C2=O)cc1 | 7.29%
Cc1cc(O)cc(O[C@H]2OC(CO)[C@H](O)[C@@H](O)[C@H]2O)c1 (stereo partly shown) | 9.81%
O=S(=O)(CCSc1ccc(C(F)(F)F)cn1)c1ccc(Cl)cc1 | 13%
COC(=O)C1=C(C)N(Cc2ccc(C)cc2)C(=O)C1 | 6.71%
CCc1ccc(CN(C)C(=O)C2CCC(=O)N(Cc3cccc(OC)c3)C2)nc1 (stereo not shown) | -18.8%
CC1CN(C(=O)c2cccc(C(=O)N3CC(C)OC(C)C3)c2)CC(C)O1 (stereo not shown) | 19.1%
C/C(=C\C(=S)Nc1ccccc1)Nc1cccc2ccccc12 | 13.3%
Cc1ccc(C(=O)NC(=S)NCC2CCCO2)cc1Br (stereo not shown) | -5.22%
CC(=O)SCC(Cc1ccccc1)C(=O)NCC(=O)OCc1ccccc1 (stereo not shown) | -12.9%
Cc1ccc(NC(=O)/C=C/c2ccc([N+](=O)[O-])s2)cc1 | 8.76%
O=c1c2ccccc2nc2n1CCc1c-2[nH]c2ccccc12 | 12%
CCS(=O)(=O)Nc1ccc(C2=NN(C(=O)c3ccccc3)C(c3cccs3)C2)cc1 (stereo not shown) | 4.84%
Cc1ccsc1-c1ccnc(-n2cccc2)n1 | 11.6%
CCCNC(=O)N[C@@H](Cc1ccccc1)C(=O)OC | -11.6%
CN(C)C(=S)Nc1cccc(-c2n[nH]c(=S)o2)c1 | 13%
Cc1ccc(CCNC(=O)C2CCN(S(=O)(=O)c3cccc4nsnc34)CC2)cc1 | -1.48%
Cc1cc(Cl)ccc1OC(C)C(=O)NN1C(=O)c2ccccc2C1=O (stereo not shown) | 20.9%
COc1ccc(CNC(=O)CN(C(=O)c2csnn2)c2cccc(C(C)=O)c2)cc1 | -2.98%
Cc1cccc(NC(=O)c2cc([N+](=O)[O-])ccc2NC2CCCCC2)c1 | 10.1%
CC(C)[C@H](NC(=O)OCc1ccccc1)C(=O)NC(C=O)Cc1ccccc1 (stereo partly drawn) (Cbz-Val-[ξF]-aldehyde) | 7.65%
Cc1cc(C)nc(NC(=O)C(C)N2C(=O)c3ccccc3C2=O)n1 (stereo not shown) | 3.73%
CC(CN(C)C)CN1c2ccccc2CCc2ccccc21.O=C(O)/C=C\C(=O)O (stereo not shown) | -37.2%

SMILES | hERG current change (%, negative = inhibition) at 10uM
O=C(NCCCn1ccnc1)c1ccc(S(=O)(=O)Nc2ccccc2)cc1 | 5.83%
O=C(N/C(=C/c1ccc([N+](=O)[O-])cc1)C(=O)N1CCOCC1)c1ccco1 | -70.1%
Cc1c(C#N)c(NC(=O)C(C)C)n(Cc2ccccc2)c1C | 5.79%
CCN(C(=O)Cn1c([N+](=O)[O-])cnc1C)c1ccccc1 | 11.7%
CCOC(=O)Cc1nc2ccccc2n(CC#N)c1=O | 9.11%
CCc1ccccc1NC(=O)CSc1nnc(Cn2cnc3ccccc32)o1 | 12.9%
CCOc1ccc(NC(=O)CN2C(=O)C3CC=CCC3C2=O)cc1 (stereo not shown) | -6.32%
COc1cccc(-n2cc(C(=O)O)c3ccccc3c2=O)c1 | 8.39%
CS(=O)(=O)N(Cc1ccccc1)c1ccc(C(=O)Nc2ccccc2Sc2ccccc2)cc1 | 1.8%
COc1ccc(NC(=O)CCc2nnc3ccc(N4CCC(C)CC4)nn23)cc1OC | -1.24%
Cc1ccc(OCc2cc(C(=O)N(C)CCc3ccccc3)no2)cc1C | -7.84%
CC(=O)N1c2ccc(S(=O)(=O)N3CCCC(C(=O)NCc4ccc(Cl)cc4)C3)cc2CC1C (stereo not shown) | -2.85%
COc1ccc(C2=NN(C(=O)CSc3nc4ncc(Cl)cc4[nH]3)C(c3ccco3)C2)cc1 (stereo not shown) | -3.38%
Cc1cc(NC(=O)CSc2nnc(Cc3cccn3C)n2CCc2ccccc2)no1 | -4.06%
S=C1NCN(C2CCCCC2)CN1Cc1ccccc1 | 4.52%
O=C(NC1CC2CCC1C2)C1CCN(S(=O)(=O)c2ccc(-c3nn[nH]n3)cc2)CC1 (stereo not shown) | 14.4%
C#CC(CC)(CC)NC(=O)c1ccc(Br)s1 | -3.64%
COc1cc(S(=O)(=O)N(Cc2cccs2)C2CC2)ccc1-n1cnnn1 | -29.2%
Cc1cc(O)c(Sc2ncn[nH]2)cc1NS(=O)(=O)c1ccc(Cl)cc1 | -2.65%
CN(C)S(=O)(=O)c1ccc2oc(SCC(N)=O)nc2c1 | 9.69%
Cn1nc(C(=O)NC2CCCc3ccccc32)ccc1=O (stereo not shown) | 18.1%
COc1cccc(OCCn2ccnc2)c1 | -5.65%

SMILES | hERG current change (%, negative = inhibition) at 10uM
Cc1ccc2nc(SCc3nnc(-c4ccccc4Br)o3)[nH]c2c1 | -6.41%
CSCC(=O)N1CCC(n2nccc2NC(=O)c2ccc3c(c2)OCO3)CC1 | -12.6%
Cc1cccc(CCNC(=O)CC2C(=O)NCCN2CC2CCCCC2)n1 (stereo not shown) | 20.9%
Cc1cc(N/N=C/c2ccccc2O)c2ccccc2n1 | -72.5%
COCCCN(C(=O)CCOc1ccc(C(C)(C)C)cc1)c1c(N)n(Cc2ccccc2)c(=O)[nH]c1=O | -62.2%
COC(=O)c1ccc(COC(=O)c2ccccn2)cc1 | 7.56%
CC(C)(C)c1ccc(C(=O)NC(=S)NCC2CCCO2)cc1 (stereo not shown) | -10.2%
Cc1ccc(NC(=O)CSc2ncccn2)cc1F | -26.4%
O=[N+]([O-])c1cc2c(cc1CN1CCN(c3ccccc3)CC1)OCO2 | 9.45%
Cc1ccccc1OCC(=O)NC(=S)Nc1cccc2cc(O)ccc12 | 13.8%
CCOC(=O)N1CCN(C(=O)C(CC(C)C)NC(=O)C2CCCCC2)CC1 (stereo not shown) | 10.8%
Cc1ccc(NC(=O)CCN2CCCCC2)cc1.Cl | -0.243%
Cc1cccc(-c2csc(N)c2C(=O)OC(C)C)c1 | -4.35%
COc1ccccc1N(C(=O)CNC(=O)c1ccco1)C(C(=O)NC1CCCC1)c1ccncc1 (stereo not shown) | 8.02%
Cc1ccc(O)c(N=Cc2sc3ccccc3c2Cl)c1 | 12%
CCN(CC)C(=O)CC1(c2ccccc2OC)CCOC(C(C)C)C1 (stereo not shown) | -7.16%
COc1ccc(N2C(=O)CSC2c2cccc(OC)c2OC)cc1 (stereo not shown) | 0.678%
CS(=O)(=O)c1ccc(Cl)c(NC(=O)COC(=O)CNC(=O)c2ccc3ccccc3c2)c1 | -2.54%
COC(=O)c1sccc1NC(=O)COc1ccc(Cl)cc1 | 4.06%
Cc1cccc(NC(=O)c2cc3c(=O)n4ccccc4nc3s2)c1 | 10.8%
O=C(Cc1ccccc1)Nc1ccc(NC(=O)c2cccs2)cc1Cl | -32.6%
CC(=O)NC(NC(=S)N1CCCCCC1)C(Cl)(Cl)Cl (stereo not shown) | 4.06%
